Structures can show the parent of a compound that is named as a salt.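 The compound was tested at five concentrations on cells cultured in 96-well plates, with a 48-hour exposure period. GI50 is the concentration that inhibits growth by half.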 Activity calls are given as the source filed them. Rule as the data show it: active = GI50 up to about 1.1 µM and inactive = higher. Peptide text beside a SMILES is read from it.
The compounds below were run on NCI-H322M (assay: NCI-60 cell line screen, 48 h).
`COc1cc(O)c2c(=O)c(OC)c(-c3ccc(OC)c(OC)c3)oc2c1` [RETUSIN] was tested, and the GI50 was inactive: 41 µM. In the case of `COc1cc(O)c2c(=O)c(O)c(-c3ccc(O)c(O)c3)oc2c1` [RHAMNETIN], the GI50 is reported as inactive: 8.85 µM. `COc1cc(O)c(C(=O)/C=C/c2ccc(O)cc2)cc1Oc1ccc(/C=C/C(=O)c2ccc(O)cc2O)cc1` [RHUSCHALCONE III] was tested, and the GI50 was inactive: 10 µM. With `COc1cc(O)c(C(=O)/C=C/c2ccc(O)cc2)cc1Oc1ccc(C(=O)/C=C/c2ccc(O)cc2)c(O)c1` [RHUSCHALCONE IV] the GI50 was inactive: 2.91 µM. With `COc1ccc(C(=O)/C=C/c2ccc(Oc3cc(C(=O)/C=C/c4ccc(O)cc4)c(O)cc3OC)cc2)c(O)c1` [RHUSCHALCONE I] the GI50 was inactive: 56.6 µM. `CO[C@H]1/C=C/O[C@@]2(C)Oc3c(C)c(O)c4c(O)c(c(/C=N/N5CCN(C)CC5)c(O)c4c3C2=O)NC(=O)/C(C)=C\C=C\[C@H](C)[C@H](O)[C@@H](C)[C@@H](O)[C@@H](C)[C@H](OC(C)=O)[C@@H]1C` [RIFAMPIN] was tested, and the GI50 was inactive: > 100 µM. With `CC(=O)c1c(O)c(C)c(O)c(Cc2c(O)c3c(c(C(=O)/C=C/c4ccccc4)c2O)OC(C)(C)C=C3)c1O` [ROTTLERIN] the GI50 was inactive: 2.57 µM. In the case of `CCC1(O)C(=O)OCc2c1cc1n(c2=O)Cc2cc3c(N)cccc3nc2-1` (stereo unspecified) [RS-9-Aminocamptothecin], the GI50 is reported as active: 0.137 µM. In the case of `O=C(O)CNC(=O)c1ccccc1O` [SALICYLURIC ACID], the GI50 is reported as inactive: > 100 µM. In the case of `O=C(O)CCCCCCCCC(=O)O` [SEBACIC ACID], the GI50 is reported as inactive: > 500 µM. With `CC[C@H](CO)Nc1nc(NCc2ccccc2)c2ncn(C(C)C)c2n1` [SELICICLIB] the GI50 was inactive: 29.4 µM. For `O=C1NC(=O)[C@@]2(CC[C@@H](O)C2)c2ccncc21` [SESBANINE], the GI50 was inactive: > 100 µM. `C=C1C[C@H]2C=Nc3cc(OCCCOc4cc5c(cc4OC)C(=O)N4CC(=C)C[C@H]4C=N5)c(OC)cc3C(=O)N2C1` [SJG-136] was tested, and the GI50 was active: 0.0299 µM. In the case of `Cc1cc(O)c(C=O)c2c1C(=O)Oc1c(CO)c(O)c3c(c1O2)C(O)OC3=O` (stereo unspecified) [SLAZINIC ACID], the GI50 is reported as inactive: 61.8 µM. With `O=C([O-])Cc1ccccc1.[Na+]` [SODIUM PHENYLACETATE] the GI50 was inactive: 1130 µM. For `CC(C)=CCC/C(C)=C/CC/C(C)=C/CC/C(C)=C/CC/C(C)=C/CC/C(C)=C/CC/C(C)=C/CC/C(C)=C/CC/C(C)=C/CO` [SOLANESOL], the GI50 was inactive: > 100 µM. With `Oc1c2ccccc2c2c3c(cccc13)N=N2` [SP-600125] the GI50 was inactive: 24.9 µM. `NCCCNCCCCNCCCN` [SPERMINE TETRAHYDROCHLORIDE] was tested, and the GI50 was inactive: > 100 µM. With `Cn1cc(NC(=O)c2cc(NC(=O)c3cc(NC=O)cn3C)cn2C)cc1C(=O)NCCC(=N)N` [STALLIMYCIN] the GI50 was inactive: > 100 µM. In the case of `CC(=O)O[C@H]1CC[C@]2(C=O)[C@H]3CC[C@]4(C)[C@@H](C5=CC(=O)OC5)CC[C@]4(O)[C@@H]3CC[C@]2(O)C1` [STROPHANTHIDIN ACETATE], the GI50 is reported as active: 0.39 µM. With `C=C[C@H]1CN2CCc3c([nH]c4c([C@H]5CCCN5C)c(O)ccc34)[C@@H]2C[C@@H]1C[C@H]1c2[nH]c3ccccc3c2CCN1C` [STRYCHNOPENTAMINE] the GI50 was inactive: 1.61 µM. In the case of `CC(=O)CC(=O)CCC(=O)O` [SUCCINYLACETONE], the GI50 is reported as inactive: 34.4 µM. `Nc1ccc(S(=O)(=O)Nc2nccs2)cc1` [SULFATHIAZOLE] was tested, and the GI50 was inactive: > 100 µM. `CO[C@@H]1C[C@H](OC(N)=O)[C@@H]2C=C[C@@H]3/C=C(C)/C=C/[C@@H](C)[C@H](/C(C)=C/[C@@H](C)NC(C)=O)OC(=O)/C=C/C=C(C)\C=C\[C@]3(C)[C@@H]2C1` [SUPERSTOLIDE B] was tested, and the GI50 was active: < 0.005 µM. With `CC1(C)CCC(C)(C)c2cc(NC(=O)c3ccc(C(=O)O)cc3)ccc21` [TAMIBAROTENE] the GI50 was inactive: 33.7 µM. `CC/C(=C(\c1ccccc1)c1ccc(OCCN(C)C)cc1)c1ccccc1` [TAMOXIFEN CITRATE] was tested, and the GI50 was inactive: 6.31 µM. With `CC/C(=C(\c1ccccc1)c1ccc(OCC[N+](C)(C)C)cc1)c1ccccc1` [TAMOXIFEN METHYL IODIDE] the GI50 was inactive: 17.8 µM. In the case of `Cc1coc2c1C(=O)C(=O)c1c-2ccc2c1CCCC2(C)C` [TANSHINONE IIA], the GI50 is reported as inactive: 3.18 µM. With `C[C@@H](C(=O)O)c1ccc(-c2ccccc2)c(F)c1` [TARENFLURBIL] the GI50 was inactive: > 100 µM. `NCCS(=O)(=O)O` [TAURINE] was tested, and the GI50 was inactive: > 100 µM. `CC1(C)CC(O)CC(C)(C)N1O` [TEMPOL HYDROXYLAMINE] was tested, and the GI50 was inactive: > 100 µM. `CO[C@H]1C[C@@H]2CC[C@@H](C)[C@@](O)(O2)C(=O)C(=O)N2CCCC[C@H]2C(=O)O[C@H]([C@H](C)C[C@@H]2CC[C@@H](OC(=O)C(C)(CO)CO)[C@H](OC)C2)CC(=O)[C@H](C)/C=C(\C)[C@@H](O)[C@@H](OC)C(=O)[C@H](C)C[C@H](C)/C=C/C=C/C=C/1C` [TEMSIROLIMUS] was tested, and the GI50 was active: 0.00129 µM. For `C[C@@H]1C[C@@H]2OC(=O)[C@]3(C)[C@H]2[C@@H](OC3(C)O)[C@]2(C)C(=O)C=C[C@@H]12` (stereo partly specified) [TENULIN], the GI50 was inactive: > 100 µM. With `O=C1O[C@H]2[C@H](OC(=O)c3cc(O)c(O)c(O)c3)[C@@H](OC(=O)c3cc(O)c(O)c4c3[C@@H]3C1=CC(=O)C(O)(O)C3(O)O4)[C@H](OC(=O)c1cc(O)c(O)c(O)c1)O[C@@H]2COC(=O)c1cc(O)c(O)c(O)c1` (stereo partly specified) [TERCHEBIN] the GI50 was inactive: 56.1 µM. In the case of `CC(C)N1CCN(c2ccc(OCC3COC(Cn4cncn4)(c4ccc(Cl)cc4Cl)O3)cc2)CC1` (stereo unspecified) [TERCONAZOLE], the GI50 is reported as inactive: 14.5 µM. With `O=c1n(CC2CO2)c(=O)n(CC2CO2)c(=O)n1CC1CO1` (stereo unspecified) [TEROXIRONE] the GI50 was inactive: 57.7 µM. In the case of `CCCCCCCCCCCCCCN` [TETRADECYLAMINE], the GI50 is reported as inactive: > 100 µM. In the case of `Cc1cc(O)c2c3c(ccc2c1)C(=O)c1c(O)cccc1C3=O` [TETRANGULOL], the GI50 is reported as inactive: 2.45 µM. `C1=Cc2nc1c(-c1ccccc1)c1nc(c(-c3ccccc3)c3ccc([nH]3)c(-c3ccccc3)c3ccc([nH]3)c2-c2ccccc2)C=C1` [TETRAPHENYLPORPHYRIN] was tested, and the GI50 was inactive: > 100 µM. `Cn1c(=O)c2nc[nH]c2n(C)c1=O` [THEOPHYLLINE] was tested, and the GI50 was inactive: > 100 µM. `c1ccc2[nH]c(-c3cscn3)nc2c1` [THIABENDAZOLE] was tested, and the GI50 was inactive: > 100 µM. In the case of `CC(=O)Nc1c2sscc-2n(C)c1=O` [THIOLUTIN], the GI50 is reported as inactive: 1.55 µM. For `O=c1oc(-c2ccc(O)c(O)c2)cc2cccc(O)c12` [THUNBERGINOL A], the GI50 was inactive: 3.57 µM. For `Nc1n[n+]([O-])c2ccccc2[n+]1[O-]` [TIRAPAZAMINE], the GI50 was inactive: > 100 µM. With `Cc1cc2nc3ccc(N(C)C)cc3[s+]c2cc1N` [TOLONIUM CHLORIDE] the GI50 was inactive: 12.8 µM. In the case of `CN(C)CCOc1ccc(/C(=C(/CCCl)c2ccccc2)c2ccccc2)cc1` [TOREMIFENE CITRATE], the GI50 is reported as inactive: 16.7 µM. In the case of `O=C1N[C@@H](Cc2ccccc2)C(=O)N2CCC[C@@H]2C(=O)N[C@@H](CCCCCC(=O)[C@@H]2CO2)C(=O)N[C@H]1Cc1ccccc1` [TRAPOXIN B] (HELM PEPTIDE1{F.F.[dP].[O=C(CCCCC[C@H](N[*:1])C(=O)[*:2])[C@@H]1CO1]}$PEPTIDE1,PEPTIDE1,1:R1-4:R2$$$V2.0), the GI50 is reported as active: 0.0175 µM. In the case of `O=C(NCCN(CCNC(=O)c1cccc(O)c1O)CCNC(=O)c1cccc(O)c1O)c1cccc(O)c1O` [TRENCAM], the GI50 is reported as inactive: 10.7 µM. With `NC(=O)c1cc(N2CC2)c([N+](=O)[O-])cc1[N+](=O)[O-]` [TRETAZICAR] the GI50 was inactive: > 100 µM. For `CC1=C(/C=C/C(C)=C/C=C/C(C)=C/C(=O)O)C(C)(C)CCC1` [TRETINOIN], the GI50 was inactive: > 76.4 µM. In the case of `CN(CO)c1nc(N(C)CO)nc(N(C)CO)n1` [TRIMELAMOL], the GI50 is reported as inactive: 21.9 µM. `Cc1cc2cc3c(C)cc(=O)oc3c(C)c2o1` [TRIOXSALEN] was tested, and the GI50 was inactive: > 100 µM. With `CC(C)[C@]12O[C@H]1[C@@H]1O[C@]13[C@]1(O[C@H]1C[C@H]1C4=C(CC[C@@]13C)C(=O)OC4)[C@@H]2O` [TRIPTOLIDE] the GI50 was active: 0.0113 µM. With `COc1ccc(/C=C/c2cc(OC)cc(OC)c2)cc1` [TRISMETHOXYRESVERATROL] the GI50 was inactive: 6.49 µM. With `O=c1cccccc1O` [TROPOLONE] the GI50 was inactive: > 100 µM. With `O=C1c2ccccc2-n2c1nc1ccccc1c2=O` [TRYPTANTHRIN] the GI50 was inactive: 11.3 µM. For `CC[C@H]1CN2CCc3cc(OC)c(OC)cc3[C@@H]2C[C@@H]1C[C@H]1NCCc2c1[nH]c1ccc(O)cc21` [TUBULOSINE], the GI50 was active: 0.0124 µM. With `N#C/C(=C\c1ccc(O)c(O)c1)C(N)=S` [TYRPHOSTIN 47] the GI50 was inactive: > 87.3 µM. In the case of `CC(C)=CCOc1cc(NC(=S)c2ccoc2C)ccc1Cl` [UC 781], the GI50 is reported as inactive: > 100 µM. For `C[C@H](CCC(=O)O)[C@H]1CC[C@H]2[C@@H]3[C@@H](O)C[C@@H]4C[C@H](O)CC[C@]4(C)[C@H]3CC[C@]12C` [URSODIOL], the GI50 was inactive: > 100 µM. In the case of `C[C@]12CC[C@H](O[C@@H]3O[C@H](CO[C@@H]4O[C@H](CO)[C@@H](O)[C@H](O)[C@H]4O)[C@@H](O)[C@H](O)[C@H]3O)C[C@@H]1CC[C@@H]1[C@@H]2CC[C@]2(C)[C@@H](C3=CC(=O)OC3)CC[C@]12O` [UZARIN], the GI50 is reported as inactive: 38.5 µM. In the case of `CCCC(CCC)C(=O)O` [VALPROIC ACID], the GI50 is reported as inactive: 9400 µM. In the case of `CC[C@]12CCCN3CCc4c(n(c5ccccc45)C(=O)C1)[C@@H]32` [VINBURNINE], the GI50 is reported as inactive: 13.2 µM. `CC1=C(CO)C(=O)O[C@@H]([C@@H](C)[C@H]2CC[C@H]3[C@@H]4C[C@H]5O[C@]56[C@@H](O)C=CC(=O)[C@]6(C)[C@H]4CC[C@]23C)C1` [WITHAFERIN A] was tested, and the GI50 was inactive: 4.63 µM. With `COc1c(O)cc(O)c2c(=O)cc(-c3ccccc3)oc12` [WOGONIN] the GI50 was inactive: 55.8 µM. For `COc1c2c(cc3oc(=O)ccc13)OC(C)(C)C=C2` [XANTHOXYLETIN], the GI50 was inactive: 35.3 µM.
